Test results as given in PubChem BioAssay AID588453 (National Center for Advancing Translational Sciences (NCATS), 2011).
About 4,000 (1%) of roughly 390,000 compounds were called active. This list was built around the results that the source calls inconclusive (neither active nor inactive); the mix of calls is not that of the screen. The call rests on the fitted dose curve; in most records, active means well fitted inhibition curve with a large enough effect; inconclusive means small, poorly fitted or top-dose-only effect; inactive means no such curve, though single readings can be large or run the other way. Potencies beside an inconclusive call are fits to weak or partial responses and may not hold up.

Target: Thioredoxin reductase 1, cytoplasmic (Rattus norvegicus) (UniProt O89049)
Sequence of UniProt O89049 (O89049 whole entry, looked up): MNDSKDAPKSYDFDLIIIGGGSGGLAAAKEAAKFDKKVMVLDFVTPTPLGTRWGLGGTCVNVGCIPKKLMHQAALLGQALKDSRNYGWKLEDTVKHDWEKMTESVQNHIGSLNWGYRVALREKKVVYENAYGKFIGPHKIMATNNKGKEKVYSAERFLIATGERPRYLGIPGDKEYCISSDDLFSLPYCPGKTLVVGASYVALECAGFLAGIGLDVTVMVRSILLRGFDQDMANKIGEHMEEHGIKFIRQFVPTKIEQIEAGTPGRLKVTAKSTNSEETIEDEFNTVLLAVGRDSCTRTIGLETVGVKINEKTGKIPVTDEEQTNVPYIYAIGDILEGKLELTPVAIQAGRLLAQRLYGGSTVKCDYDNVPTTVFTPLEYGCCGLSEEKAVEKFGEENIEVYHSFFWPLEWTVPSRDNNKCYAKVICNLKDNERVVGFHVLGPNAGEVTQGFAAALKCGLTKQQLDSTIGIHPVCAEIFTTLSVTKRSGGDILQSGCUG
Assay: qHTS Assay for Inhibitors of Mammalian Selenoprotein Thioredoxin Reductase 1 (TrxR1): qHTS; further: nearly all actives have a fitted effect of over 65% in size
Details: recombinant rTrxR1, NADPH fluorescence consumption, selenite substrate; series mostly up to 114 µM
Method in brief: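 Rat TrxR1 (90 nM in the dispensed reagent) was pre-reduced with 400 uM NADPH for 5 min at room temperature, then incubated with compound for 15 min. After 400 uM selenite was added, NADPH fluorescence (Ex 340/Em 450 nm) was followed for 8 min.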
Potency means the concentration at half of the fitted maximal effect; tags describe the fitted curve by direction and shape.

| Compound | Potency |
| --- | --- |
| CC1(C)Cc2c(C#N)c(N)sc(=S)c2CS1 | active: 14.1 µM |
| Cc1nc2ncccn2c1-c1csc(NCc2ccco2)n1 | inconclusive: 28.2 µM [inhibitor, partial curve, poor fit] |
| c1ccc(-c2nn3c(Cn4nnc5ccccc54)nnc3s2)cc1 | inactive |
| COc1ccc(-c2cc3ccc(OCc4nn[nH]n4)cc3oc2=O)cc1 | inconclusive: 70.8 µM [inhibitor, single point] |
| O=C(NCCSCc1ccco1)c1ccc(=O)[nH]c1 | inconclusive: 12.6 µM [inhibitor, full curve] |
| O=C(COc1ccc(Br)cc1)Nc1ccc(-c2nnc(-c3ccco3)o2)cc1 | inactive |
| COc1ccc2cc3[n+](cc2c1OC)CCc1cc2c(cc1-3)OCO2 | inconclusive: 79.4 µM [inhibitor, single point] |
| COc1cc(N2CCCC2)c(OC)cc1/C=C(/C#N)c1ccc(F)cc1 | inactive |
| O=C(CN1CCCN(S(=O)(=O)c2ccc(F)cc2)CC1)Nc1cccc(F)c1 | inconclusive: 44.7 µM [inhibitor, partial curve, poor fit] |
| COC(=O)C(=Cc1ccccc1[N+](=O)[O-])C(=O)OC | active: 56.2 µM |
| NS(=O)(=O)c1ccc(CCNC(=O)CNCCc2ccccc2)cc1 | inactive |
| Cc1ccc(-c2cc(C(=O)Oc3ccc(C#N)cc3)no2)cc1C | inconclusive: 10 µM [inhibitor, full curve] |
| C=CCn1c(SCC(=O)c2cccs2)nnc1-c1cccc(OC)c1 | inconclusive: 35.5 µM [inhibitor, partial curve] |
| CC(=O)c1ccc(NC(=S)Nc2cccc(S(=O)(=O)Nc3c(C)n(C)n(-c4ccccc4)c3=O)c2)cc1 | inconclusive: 31.6 µM [inhibitor, single point] |
| Cc1ccc2c(c1)c1c(c(=O)n(Cc3ccccc3)c(=O)n1CC(=O)Nc1ccccc1F)n2C | inactive |
| N=c1oc2ccc(Br)cc2cc1C(=O)NC1CCCCCC1 | inconclusive: 89.1 µM [inhibitor, single point] |
| CCOc1ccc2nc(SCC(=O)NNC(=O)c3ccco3)c(C)cc2c1 | inconclusive: 89.1 µM [inhibitor, partial curve, poor fit] |
| CC(NC(=O)c1cccs1)c1n[nH]c(=S)n1C (stereo not drawn) | inconclusive: 44.7 µM [inhibitor, single point] |
| COC(=O)[C@@]1(Cc2ccc(OC)cc2)[C@H]2c3cc(C(=O)N4CCCC4)n(CCn4cc([N+](=O)[O-])nc4C)c3C[C@H]2CN1C(=O)c1ccccc1 | inactive |
| COc1ccc(-n2c(=S)[nH]c3sc(-c4ccccc4)cc3c2=O)c(OC)c1 | inconclusive: 15.8 µM [inhibitor, partial curve, poor fit] |
| CCS(=O)(=O)N1CCN(c2ccc(C(=O)N3CCOCC3)cc2[N+](=O)[O-])CC1 | inactive |
| Cc1ccc(N=c2ssnc2Cl)cc1 | inconclusive: 44.7 µM [inhibitor, partial curve, poor fit] |
| CCOc1ccc(CCNC(=O)c2ccc3c(c2)N(Cc2ccccc2F)C(=O)c2ccccc2S3=O)cc1OCC (stereo not drawn) | inactive |

| Compound | Potency |
| --- | --- |
| CCN1CCN(CCCNC(=O)Cn2c(-c3cccs3)cc3cc(F)ccc32)CC1 | inactive |
| COc1ccc(NC2CCCN(C(=O)c3c(C)noc3C)C2)cc1 (stereo not drawn) | inconclusive: 89.1 µM [inhibitor, partial curve, poor fit] |
| CCOc1ccc(/C=N/NC(=S)NC2CC3CC2C2C=CCC32)cc1 (stereo not drawn) | inactive |
| COc1cc(/C=C2\SC(N3CCc4ccccc4C3)=NC2=O)cc(OC)c1OC | inconclusive: 89.1 µM [inhibitor, single point] |
| O=C(/C=C/c1ccco1)N1CCN(C/C=C/c2ccccc2)CC1 | inconclusive: 39.8 µM [inhibitor, partial curve, poor fit] |
| O=C(O)c1ccc(Oc2c(C(F)(F)F)oc3cc(O)ccc3c2=O)cc1 | inconclusive: 89.1 µM [inhibitor, single point] |
| COc1cc(CN2CCCCCC2)cc(OC)c1O | inconclusive: 35.5 µM [inhibitor, partial curve, poor fit] |
| COc1ccc2c(c1)CC/C(=C\C=C\c1ccccc1)C2=O | inconclusive: 25.1 µM [inhibitor, full curve] |
| COc1ccc(C(=O)N/N=C/c2ccc(N3CCOCC3)o2)cc1OC | active: 28.2 µM |
| CCc1ccc(N2CSC3=C(C#N)C(c4cccs4)CC(=O)N3C2)cc1 (stereo not drawn) | inconclusive: 39.8 µM [inhibitor, partial curve] |
| CCc1c(C(=O)Nc2ccccc2C(N)=O)csc1C | inconclusive: 25.1 µM [inhibitor, single point] |
| Cc1nc2c(O)c3c(c(O)c2nc1C)C1C=CC3CC1 | inconclusive: 89.1 µM [inhibitor, single point] |
| O=[N+]([O-])c1ccc2c(c1)oc1ccccc12 | inactive |
| CC(=O)N(C1=C(Cl)C(=O)c2ccccc2C1=O)c1ccc(C(=O)O)cc1 | inconclusive: 0.501 µM [inhibitor, full curve, poor fit] |
| Cc1ccc(S(=O)(=O)/C=C/C#N)cc1 | active: 0.947 µM |
| Cc1ccc(F)cc1NC(=S)NCCc1ccccc1 | inconclusive: 28.2 µM [inhibitor, single point] |
| Cc1oc(C)c2c(=O)cc(-c3ccc4c(c3)OCO4)cc(OC(=O)c3cccc(Cl)c3)c12 | inconclusive: 35.5 µM [inhibitor, full curve] |
| O=C1c2ccccc2C(=O)N1CCSc1nc2ccccc2c(=O)n1CCCN1CCOCC1 | inconclusive: 39.8 µM [inhibitor, single point] |
| Cc1ccsc1CN(C(=O)COc1cccc(C)c1C)C1CCS(=O)(=O)C1 (stereo not drawn) | inactive |
| CCOC(=O)COc1ccc(F)cc1C(=O)c1ccn2nc(-c3ccc(C)cc3)cc2n1 | inactive |
| O=C(O)C1=CC[C@@H](c2ccc(Cl)cc2)N(S(=O)(=O)c2ccc(Cl)cc2)[C@H]1c1cccc(Cl)c1 | inactive |
| COc1ccc(-c2cc3nc(C)c(CCC(=O)N4CCN(c5ccccn5)CC4)c(C)n3n2)c(OC)c1 | inconclusive: 89.1 µM [inhibitor, single point] |
| O=C(/C=C\c1ccco1)Nc1cc([N+](=O)[O-])ccc1F | inconclusive: 56.2 µM [inhibitor, partial curve] |

| Compound | Potency |
| --- | --- |
| O=C(O)c1ccc(NC2=C(N3CCOCC3)C(=O)c3ccccc3C2=O)cc1 | inconclusive: 50.1 µM [inhibitor, partial curve] |
| CC(=O)c1ccc(OCC(C)C)c(CN2CCCCC2)c1 | inconclusive: 25.1 µM [inhibitor, partial curve, poor fit] |
| O=C(N/N=C/c1ccccn1)c1cc(-c2ccncc2)nc2ccccc12 | inactive |
| COc1cc(/C=C2\C(=N)N3N=C(S(C)(=O)=O)SC3=NC2=O)ccc1OC(=O)c1ccco1 | inconclusive: 39.8 µM [inhibitor, partial curve] |
| O=C(CSc1ccccc1Cl)c1ccco1 | inconclusive: 44.7 µM [inhibitor, partial curve, poor fit] |
| COc1ccc(NC2=CC(c3cccc(OC)c3)N(c3ccc(OC)cc3)C2=O)cc1 (stereo not drawn) | inconclusive: 79.4 µM [inhibitor, single point] |
| COc1ccc(S(=O)(=O)Nc2ccc(O)c3ccccc23)cc1 | inconclusive: 79.4 µM [inhibitor, partial curve] |
| O=C(Nc1ccc2nc3n(c(=O)c2c1)CCCCC3)c1c(F)ccc([N+](=O)[O-])c1F | active: 50.1 µM |
| Cn1cccc1/C=N/n1c(-c2ccco2)n[nH]c1=S | inconclusive: 56.2 µM [inhibitor, partial curve, poor fit] |
| COCCOC(=O)/C(=C\c1cc(C(C)(C)C)c(O)c(C(C)(C)C)c1)C(C)=O | inconclusive: 12.6 µM [inhibitor, full curve] |
| Clc1ccc(C(c2nnnn2C2CCCC2)N2CCN(Cc3ccncc3)CC2)cc1 (stereo not drawn) | inactive |
| CCc1ccc(S(=O)(=O)N(C(=O)c2ccncc2)c2ccc(OC(=O)c3ccncc3)cc2)cc1 | inconclusive: 20 µM [inhibitor, partial curve, poor fit] |
| O=C(NCC(c1cccnc1)N1CCc2ccccc21)c1ccc(F)cc1 (stereo not drawn) | inactive |
| CCCCn1c(SCC(=O)NCc2ccco2)nnc1-c1ccco1 | inconclusive: 44.7 µM [inhibitor, partial curve, poor fit] |
| COc1ccc(OC(C)C(=O)NCc2nc(-c3cccc(C)c3)no2)cc1 (stereo not drawn) | inactive |
| Cc1c(C(=O)N(Cc2ccco2)Cc2ccccc2Cl)oc2ccc(F)cc12 | inconclusive: 15.8 µM [inhibitor, full curve] |
| COc1ccc(C2Nc3ccccc3C(=O)N2O)cc1CN1CCOCC1 (stereo not drawn) | inconclusive: 10 µM [inhibitor, partial curve] |
| O=C(CNC(=O)c1ccc(Cl)cc1)OCC(=O)c1ccc2c(c1)OCCO2 | inactive |
| CC(OC(=O)c1ccccc1C(=O)N(C)c1ccccc1)C(=O)Nc1ccc(C(N)=O)cc1 (stereo not drawn) | inactive |
| Cc1ccc(/C=N/n2c(-c3cccnc3)n[nH]c2=S)s1 | inconclusive: 22.4 µM [inhibitor, partial curve, poor fit] |
| CCOc1ccccc1/C=C/C(=O)NCC(=O)N1CCC(N(C)C2CCCCC2C)CC1 (stereo not drawn) | inconclusive: 70.8 µM [inhibitor, single point] |
| CC(C)CN(C(=O)CN1CCN(c2ccc(O)cc2)CC1)c1c(N)n(CC(C)C)c(=O)[nH]c1=O | inactive |
